Assay results taken from paper PMC5892938.
The list shows a part of the results. At the low end of the ranking the order means little.

What follows are sequences tested against GST-SBP-SLBP (stem-loop binding protein) (UniProt Q14493) (assay: targeted RNA Bind-n-Seq). Conditions: RBNS binding buffer: 25 mM Tris pH 7.5, 150 mM KCl, 3 mM MgCl2, 0.1% Tween, 0.5 mg/mL BSA, 1 mM DTT; 27 nM protein, 750 pM RNA pool; temperature not stated; high values mean tight binding.
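Note: DESeq read counts versus GST-SBP nonspecific binding control pulldown.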

Sequence	binding signal (log2 fold change)
GGUCACGUCUCAAUCAACUCUUUCUCCAGGGAAAACCCUGGUUAUCUCAACAGCUCGCAGUCAAG	0.0909
GGUCACGUCUCAAUCAACUCUUUCUCCAGGGAAAUCCCUGGCAAACUCAACAGCUCGCAGUCAAG	-0.0739
GGUCACGUCUCAAUCAACUCCUCCGAGGGGGGGAAAACCCCUUUACCCUCACAUUCAACAGCUCGCAGUCAAG	0.147
GGUCACGUCUCAAUCAACUCAUCUUCAGGAGUUUCCUCCUGCAAUUUCAACAGCUCGCAGUCAAG	-0.0156
GGUCACGUCUCAAUCAACUCCAAAGAGGGGGGGAAAACCCCUUUACCCUCAUUAUCAACAGCUCGCAGUCAAG	0.199
GGUCACGUCUCAAUCAACUCAACGGCAGGAGUUUACUCCUGGAAUUUCAACAGCUCGCAGUCAAG	-0.148
GGUCACGUCUCAAUCAACUCAUUAGAGGGGGGGAAAACCCCUUUACCCUCACACUCAACAGCUCGCAGUCAAG	0.000745
GGUCACGUCUCAAUCAACUCUAUCUCCAGGGAAAACCCUGGUUAAUUCAACAGCUCGCAGUCAAG	0.145
GGUCACGUCUCAAUCAACUCUUUCUCCAGGGAAACCCCUGGCUAUGUCAACAGCUCGCAGUCAAG	-0.185
GGUCACGUCUCAAUCAACUCAUACGAGGGGGGGAAAACCCCUUUACCCUCAACCUCAACAGCUCGCAGUCAAG	-0.357
GGUCACGUCUCAAUCAACUCAUUUCCCAGGGAAACCCCUGGUAUUCUCAACAGCUCGCAGUCAAG	0.0526
GGUCACGUCUCAAUCAACUCAUCAGAGGGGGGGAAAACCCCUUUGCCCUCAAUAUCAACAGCUCGCAGUCAAG	-0.0333
GGUCACGUCUCAAUCAACUCACAAGAGGGGGGGAAAACCCCUUUACCCUCGAUAUCAACAGCUCGCAGUCAAG	0.383
GGUCACGUCUCAAUCAACUCUUUUGCAGGAGUUUUCUCCUGGUAUUUCAACAGCUCGCAGUCAAG	-0.153
GGUCACGUCUCAAUCAACUCUAUCCCAGGAGUUUACUCCUGCAAACUCAACAGCUCGCAGUCAAG	0.0981
GGUCACGUCUCAAUCAACUCAACGCCAGGAGUUUACUCCUGUUAAUUCAACAGCUCGCAGUCAAG	0.227
GGUCACGUCUCAAUCAACUCAUUCCCCAGGGAAACCCCUGGUAUACUCAACAGCUCGCAGUCAAG	-0.161
GGUCACGUCUCAAUCAACUCAUCGCCAGGAGUUUCCUCCUGCUAUCUCAACAGCUCGCAGUCAAG	0.12
GGUCACGUCUCAAUCAACUCUUCCUCAGGAGUUUACUCCUGCUUUUUCAACAGCUCGCAGUCAAG	0.0704
GGUCACGUCUCAAUCAACUCUAUCCCAGGAGUUUUCUCCUGCUAUUUCAACAGCUCGCAGUCAAG	0.177
GGUCACGUCUCAAUCAACUCAACUCCAGGAGUUUCCUCCUGUUUUCUCAACAGCUCGCAGUCAAG	-0.1
GGUCACGUCUCAAUCAACUCAACUCCCAGGGAAAUCCCUGGCUUAUUCAACAGCUCGCAGUCAAG	0.0164
GGUCACGUCUCAAUCAACUCACAAGAGGGGGGGAAAACCCCUUUGCCCUCACUAUCAACAGCUCGCAGUCAAG	-0.233
GGUCACGUCUCAAUCAACUCUACUUCCAGGGAAAUCCCUGGCUUUUUCAACAGCUCGCAGUCAAG	-0.0329
GGUCACGUCUCAAUCAACUCAUCUUCAGGAGUUUACUCCUGCUAAUUCAACAGCUCGCAGUCAAG	0.211

Sequence	binding signal (log2 fold change)
GGUCACGUCUCAAUCAACUCUAUCUCAGGAGUUUACUCCUGCUAAUUCAACAGCUCGCAGUCAAG	0.0625
GGUCACGUCUCAAUCAACUCAUCAGAGGGGGGGAAAACCCCUUUACCCUCACCAUCAACAGCUCGCAGUCAAG	-0.238
GGUCACGUCUCAAUCAACUCUUUUCCCAGGGAAAGCCCUGGCAAUCUCAACAGCUCGCAGUCAAG	0.059
GGUCACGUCUCAAUCAACUCAGUCCCAGGAGUUUUCUCCUGCUUUUUCAACAGCUCGCAGUCAAG	-0.0613
GGUCACGUCUCAAUCAACUCUUAAGAGGGGGGGAAAACCCCUUUACCCUCCACUUCAACAGCUCGCAGUCAAG	-0.342
GGUCACGUCUCAAUCAACUCAUCUCCAGGAGUUUACUCCUGCUAACUCAACAGCUCGCAGUCAAG	0.114
GGUCACGUCUCAAUCAACUCAUCCGAGGGGGGGAAAACCCCUUUACCCUCAAAUUCAACAGCUCGCAGUCAAG	0.0764
GGUCACGUCUCAAUCAACUCUUCUCCCAGGGAAAACCCUGGCAAUUUCAACAGCUCGCAGUCAAG	0.149
GGUCACGUCUCAAUCAACUCCCUCGAGGGGGGGAAAACCCCUUUACCCUCCAUUUCAACAGCUCGCAGUCAAG	-0.161
GGUCACGUCUCAAUCAACUCAAUAGAGGGGGGGAAAACCCCUUUGCCCUCACAUUCAACAGCUCGCAGUCAAG	-0.104
GGUCACGUCUCAAUCAACUCAUCUUCAGGAGUUUGCUCCUGUUUUUUCAACAGCUCGCAGUCAAG	-0.0673
GGUCACGUCUCAAUCAACUCAACUUCAGGAGUUUUCUCCUGCAAUGUCAACAGCUCGCAGUCAAG	0.0446
GGUCACGUCUCAAUCAACUCUAGUCCCAGGGAAAGCCCUGGUUUUUUCAACAGCUCGCAGUCAAG	-0.0134
GGUCACGUCUCAAUCAACUCUUCUCCCAGGGAAAACCCUGGCUAACUCAACAGCUCGCAGUCAAG	0.211
GGUCACGUCUCAAUCAACUCAACUUCAGGAGUUUCCUCCUGUAAUUUCAACAGCUCGCAGUCAAG	-0.169
GGUCACGUCUCAAUCAACUCAAUGUCAGGAGUUUCCUCCUGUUUACUCAACAGCUCGCAGUCAAG	-0.00977
GGUCACGUCUCAAUCAACUCUUUAGAGGGGGGGAAAACCCCUUUGCCCUCAUAUUCAACAGCUCGCAGUCAAG	0.0919
GGUCACGUCUCAAUCAACUCAUUUCCCAGGGAAACCCCUGGCUUAUUCAACAGCUCGCAGUCAAG	-0.092
GGUCACGUCUCAAUCAACUCUACGCCAGGAGUUUACUCCUGUAUUUUCAACAGCUCGCAGUCAAG	-0.0687
GGUCACGUCUCAAUCAACUCAUCCUCCAGGGAAAGCCCUGGUUUAUUCAACAGCUCGCAGUCAAG	-0.215
GGUCACGUCUCAAUCAACUCCUAAGAGGGGGGGAAAACCCCUUUACCCUCCAUUUCAACAGCUCGCAGUCAAG	0.0366
GGUCACGUCUCAAUCAACUCUUUUUCAGGAGUUUACUCCUGUAUAUUCAACAGCUCGCAGUCAAG	-0.102
GGUCACGUCUCAAUCAACUCUUCCGAGGGGGGGAAAACCCCUUUACCCUCACAUUCAACAGCUCGCAGUCAAG	-0.296
GGUCACGUCUCAAUCAACUCAACUCCCAGGGAAAGCCCUGGUAAACUCAACAGCUCGCAGUCAAG	-0.0848
GGUCACGUCUCAAUCAACUCUUCCUCCAGGGAAAGCCCUGGUUAUCUCAACAGCUCGCAGUCAAG	0.0356

Sequence	binding signal (log2 fold change)
GGUCACGUCUCAAUCAACUCCCACGAGGGGGGGAAAACCCCUUUACCCUCAUACUCAACAGCUCGCAGUCAAG	-0.0469
GGUCACGUCUCAAUCAACUCUCAAGAGGGGGGGAAAACCCCUUUACCCUCAUCGUCAACAGCUCGCAGUCAAG	0.0311
GGUCACGUCUCAAUCAACUCUUUCCCCAGGGAAAACCCUGGUAAUUUCAACAGCUCGCAGUCAAG	-0.172
GGUCACGUCUCAAUCAACUCUAUUCCCAGGGAAAUCCCUGGUAUUUUCAACAGCUCGCAGUCAAG	-0.098
GGUCACGUCUCAAUCAACUCUUUCCCAGGAGUUUUCUCCUGCAAUCUCAACAGCUCGCAGUCAAG	-0.069
GGUCACGUCUCAAUCAACUCUACUCCCAGGGAAAUCCCUGGCUAACUCAACAGCUCGCAGUCAAG	-0.251
GGUCACGUCUCAAUCAACUCUUCUCCCAGGGAAAUCCCUGGCAAUCUCAACAGCUCGCAGUCAAG	-0.0579
GGUCACGUCUCAAUCAACUCAUCGUCAGGAGUUUACUCCUGUUUUCUCAACAGCUCGCAGUCAAG	0.209
GGUCACGUCUCAAUCAACUCAACGCCAGGAGUUUCCUCCUGUAUUCUCAACAGCUCGCAGUCAAG	0.196
GGUCACGUCUCAAUCAACUCAGUCUCAGGAGUUUACUCCUGCUUUCUCAACAGCUCGCAGUCAAG	0.213
GGUCACGUCUCAAUCAACUCUUCGUCAGGAGUUUCCUCCUGUUAUUUCAACAGCUCGCAGUCAAG	0.105
GGUCACGUCUCAAUCAACUCUUCUCCAGGAGUUUACUCCUGUAUAUUCAACAGCUCGCAGUCAAG	-0.305
GGUCACGUCUCAAUCAACUCAUCGCCAGGAGUUUUCUCCUGUAUUCUCAACAGCUCGCAGUCAAG	0.026
GGUCACGUCUCAAUCAACUCUACUCCCAGGGAAACCCCUGGCAUUUUCAACAGCUCGCAGUCAAG	-0.0513
GGUCACGUCUCAAUCAACUCAGUUUCAGGAGUUUUCUCCUGUUUUUUCAACAGCUCGCAGUCAAG	-0.331
GGUCACGUCUCAAUCAACUCUUCGUCCAGGGAAACCCCUGGCUAUUUCAACAGCUCGCAGUCAAG	-0.26
GGUCACGUCUCAAUCAACUCCCUCGAGGGGGGGAAAACCCCUUUACCCUCAAAAUCAACAGCUCGCAGUCAAG	0.14
GGUCACGUCUCAAUCAACUCUUCCUCCAGGGAAAGCCCUGGCUUAUUCAACAGCUCGCAGUCAAG	-0.0469
GGUCACGUCUCAAUCAACUCUUAGGAGGGGGGGAAAACCCCUUUACCCUCAACAUCAACAGCUCGCAGUCAAG	-0.434
GGUCACGUCUCAAUCAACUCAAUCCCAGGAGUUUCCUCCUGUUAAUUCAACAGCUCGCAGUCAAG	0.0542
GGUCACGUCUCAAUCAACUCAAUCUCAGGAGUUUCCUCCUGUAAUCUCAACAGCUCGCAGUCAAG	0.175
GGUCACGUCUCAAUCAACUCUUUUCCCAGGGAAACCCCUGGUAUUUUCAACAGCUCGCAGUCAAG	0.194
GGUCACGUCUCAAUCAACUCAGUCCCAGGAGUUUACUCCUGCUAUCUCAACAGCUCGCAGUCAAG	0.229
GGUCACGUCUCAAUCAACUCUUCCCCCAGGGAAAGCCCUGGCUUUUUCAACAGCUCGCAGUCAAG	-0.229
